# Measured values published in PubChem BioAssay AID504832 (National Center for Advancing Translational Sciences (NCATS), 2011).
# Out of some 310,000 compounds screened, about 18,000 (5.8%) were called active. The inconclusive results got no clear call from the source; some entries with a clear call stand among them for comparison. Calls follow the shape of the dose curve; as a rule, active = well fitted inhibition curve with a large enough effect; inconclusive = small, poorly fitted or top-dose-only effect, or another doubt; inactive = no such curve, though single readings can be large or run the other way. No potency is given beside an inconclusive call; the fits are too rough.
# Assay: Primary qHTS for delayed death inhibitors of the malarial parasite plastid, 48 hour incubation
# Details: P. falciparum luciferase growth in erythrocytes; series mostly up to 28.7 µM; activity change, negative = inhibition: at the top concentration
# In short: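 Read-out is firefly luciferase luminescence from an integrated reporter in P. falciparum, so falling signal marks reduced parasite growth. Infected erythrocytes were at 2% hematocrit and 0.1% parasitemia (final) in Albumax-supplemented RPMI 1640.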
# % is scaled to controls: 0 for no effect and ±100 for the full control effect; potency is read from the fitted curve at half-maximal effect; tags tell the direction and shape of the fitted curve.
Structure (SMILES),"activity change, negative = inhibition",Potency
O=C(NCc1nnc(SCC(=O)N2CCCC2)o1)c1ccccc1,inactive: -12%,–
CCc1ccc(NC(=S)N(CCCN2CCN(C)CC2)Cc2cccs2)cc1,–,"inconclusive [inhibitor, partial curve, poor fit]"
O=C(CCNS(=O)(=O)c1ccc2[nH]c(=O)oc2c1)Nc1ccccc1,inactive: 15.1%,–
Cc1cc(C(=O)NNC(=O)c2ccc(Cl)cc2Cl)c(C)o1,inactive: 15.6%,–
CCn1c(CNc2ccc(F)cc2)nnc1SCC(=O)Nc1ccc(OC)cc1,–,"inconclusive [inhibitor, single point]"
Cc1c(C(c2ccc([N+](=O)[O-])cc2)c2c(C)n(C)n(-c3ccccc3)c2=O)c(=O)n(-c2ccccc2)n1C,–,"inconclusive [inhibitor, partial curve]"
CC(C)(C)c1cc(-c2nc(N)nc(N)n2)c(O)c(C(C)(C)C)c1,–,"inconclusive [inhibitor, single point]"
COc1ccc(CCNc2ncnc3c2[nH]c2cc(OC)c(OC)cc23)cc1OC,–,"inconclusive [inhibitor, partial curve]"
CCOC(=O)NC(=O)C(=CNc1cccc(C)c1)C(=O)NC(=O)OCC,inactive: 3.09%,–
N#CC1=C(N)NC(SCc2ccccc2)=C(C#N)C12CCCC2,–,"inconclusive [inhibitor, single point]"
CCCc1nc2ccccc2c(C(=O)OC(C)C(=O)NCc2ccc3c(c2)OCO3)c1CC (centres undefined),–,"inconclusive [inhibitor, partial curve]"
CN(/N=C/c1ccc(Cl)cc1)c1ncc(Cl)cc1C(F)(F)F,–,"inconclusive [inhibitor, single point]"
CCC(=O)c1cn(/C(=C\C(=O)OC(C)(C)C)CCC(OC)OC)cc1CC,–,"inconclusive [inhibitor, single point]"
O=C(CSc1c2c(nc3ccccc13)CCCC2)NCc1ccco1,–,"inconclusive [inhibitor, single point]"
COC(=O)C1=CN(CC2CCCO2)C=C(C(=O)OC)C1c1ccsc1 (centres undefined),–,"inconclusive [inhibitor, partial curve]"
CC1CCN(C(C)C(=O)Nc2ccccc2-c2ccccc2)CC1 (centres undefined),inactive: 0%,–
CC(C)CCN1CCN(Cc2ccon2)CC1CCO (centres undefined),inactive: 26.8%,–
O=c1c(-c2ccco2)[n+]([O-])c2ccccc2n1OCc1ccccn1,inactive: 31.7%,–
O=[N+]([O-])c1cc(S(=O)(=O)N2CCCC2)ccc1OCc1ccccc1,inactive: -6.31%,–
COC(=O)C/C=C/[C@@H](C)[C@@H](/C=N/O[C@@H](C)c1cn([C@H](CO)Cc2ccccc2)nn1)NS(=O)(=O)c1ccc(C)cc1,–,"inconclusive [inhibitor, partial curve]"
Cc1cccc(N2C(=NC(=O)c3ccccc3)SC3CS(=O)(=O)CC32)c1 (centres undefined),–,"inconclusive [inhibitor, partial curve, poor fit]"
Cc1n(Cc2ccccc2)c2cc([N+](=O)[O-])ccc2[n+]1Cc1ccccc1,–,"inconclusive [inhibitor, partial curve, poor fit]"
CCc1cccc(CC)c1NC(=O)CN1C2CCCC1CC(NC(=O)Nc1cccc(OC)c1)C2 (centres undefined),–,"inconclusive [inhibitor, partial curve]"

Structure (SMILES),"activity change, negative = inhibition",Potency
COC(=O)C1=C(c2cccc(C#N)c2)C[C@@H]2CC[C@H]1N2C(=O)NCCOc1ccccc1Cl,–,active: 13.1 µM
COc1ccc(CCNC(=O)c2ccc(CNS(=O)(=O)c3ccc(C(C)(C)C)cc3)cc2)cc1OC,–,"inconclusive [inhibitor, partial curve]"
CCOc1ccc(OCCOCCN2CCCC2)cc1,inactive: 24.3%,–
CCc1nc2sc3ccccc3c(=O)c2c(=O)n1Cc1ccc(OC)cc1,inactive: -14%,–
CCCCCCc1cc2cc(C(=O)Nc3ccccc3)c(=O)oc2cc1O,–,"inconclusive [inhibitor, full curve, poor fit]"
Cc1ncoc1C(=O)N1CCCC(N2CCN(c3cccc(C(F)(F)F)c3)CC2)C1 (centres undefined),–,"inconclusive [inhibitor, single point]"
CCCn1c(SC(C)C(=O)NCC2CCCO2)nc2cc(Cl)ccc2c1=O (centres undefined),–,"inconclusive [inhibitor, single point]"
NS(=O)(=O)c1ccc(NC(=O)c2cccc(N3C(=O)c4ccccc4C3=O)c2)cc1,inactive: 9.49%,–
COc1ccc(Cl)cc1NC(=O)CN(C)CC(=O)NC(C)c1ccccc1 (centres undefined),–,active: 10.4 µM
O=C(NNC(=S)Nc1ccc(Cl)c(Cl)c1)c1ccccn1,–,active: 2.33 µM
Cc1nc(N2CCN(Cc3ccccc3)CC2)[nH]c(=O)c1C,inactive: 18.8%,–
O=C(CSCSCC(=O)Nc1ccc2c(c1)OCO2)Nc1ccc2c(c1)OCO2,–,"inconclusive [inhibitor, partial curve, poor fit]"
CC1CN(Cc2nc3c(c(=O)n(C)c(=O)n3C)n2Cc2cccc(Cl)c2)CC(C)O1 (centres undefined),–,"inconclusive [inhibitor, partial curve, poor fit]"
CC(C)(C)c1ccc(O)c(N=Cc2c(O)ccc3ccccc23)c1,–,"inconclusive [inhibitor, partial curve]"
Cc1ccccc1NC(=O)COc1coc(CN2CCN(c3ccccc3)CC2)cc1=O,–,"inconclusive [inhibitor, partial curve, poor fit]"
Cn1cc(/C=C/c2cc[n+](C)cc2)c2cc(F)ccc21,–,active: 0.262 µM
Cc1ccc(OC(C)C(=O)N(C)c2ccccc2)c([N+](=O)[O-])n1 (centres undefined),inactive: 5.88%,–
O=C(NCC1([N+](=O)[O-])CN(C(=O)c2ccccc2)CN(C(=O)c2ccccc2)C1)c1ccccc1,inactive: -14.1%,–
O=C1C(Cl)=C(NCC2CCCO2)C(=O)N1C1CCCCC1 (centres undefined),–,"inconclusive [inhibitor, single point]"
O=C(CN1CCN(c2ccccn2)CC1)Nc1cccc(Cl)c1Cl,–,"inconclusive [inhibitor, partial curve]"
Cc1cc(=O)c2c([nH]1)c(C)cc1[nH]c(C)c(C)c12,–,"inconclusive [inhibitor, single point]"
COc1ccc(CNC(=O)C/C(C)=N/NC(=O)c2ccc([N+](=O)[O-])cc2Cl)cc1,inactive: 7.7%,–
Cc1ccc(C)c(N2CCN(S(=O)(=O)c3c(C)[nH]c(C)c3C(=O)N3CCCCC3)CC2)c1,–,"inconclusive [inhibitor, full curve, poor fit]"

Structure (SMILES),"activity change, negative = inhibition",Potency
Cc1c(C(=O)OCC(=O)N2CC(=O)Nc3ccccc32)oc2ccccc12,–,"inconclusive [inhibitor, partial curve, poor fit]"
Cc1ccc2c(Cl)c(C(=O)N/N=C/c3cccn3C)sc2c1,inactive: 40.4%,–
O=C(CN1CCCCC1)NN(Cc1ccccc1)c1ccccc1,inactive: 31.3%,–
O=c1[nH]nc(Cc2ccc([N+](=O)[O-])cc2)c2ccccc12,inactive: -24%,–
Cc1nc2c3cc(F)ccc3n(CCN3CCCCC3)c2s1,–,"inconclusive [inhibitor, single point]"
CCOC(=O)Cn1nc(Cc2ccccc2)c2ccccc2c1=O,–,"inconclusive [inhibitor, full curve]"
CCOC(=O)C1=C(C)N=C2SC(C)C(=O)N2C1c1ccc(OC(C)=O)c(OCC)c1 (centres undefined),–,"inconclusive [inhibitor, single point]"
CCCn1c(NC(=O)c2ccco2)nc2ccccc21,–,"inconclusive [inhibitor, single point]"
COc1ccc(N2CCN(C(=O)COCc3cc(-c4ccc5c(c4)OCO5)on3)CC2)cc1,inactive: -15.5%,–
Cc1c(C)n(CC(O)CNc2ccccc2)c2ccccc12 (centres undefined),–,"inconclusive [inhibitor, single point]"
CC(=O)Nc1ccc(NC(=O)CCC(=O)OCC(=O)c2ccc(F)cc2)cc1,inactive: 7.74%,–
Cc1nn2c(COc3ccc(NC(=O)c4ccccc4)cc3)nnc2c2ccccc12,–,"inconclusive [inhibitor, partial curve]"
Cc1nc(NC(=O)c2ccccc2)sc1-c1csc(Nc2ccc(Cl)cc2Cl)n1,–,active: 10.4 µM
N/C(=N\OC(=O)CSc1ccccc1)c1ccc([N+](=O)[O-])cc1,inactive: 125%,–
Cc1ccc2c(CN3CCN(S(=O)(=O)c4ccc5c(c4)OCCO5)CC3)cc(=O)oc2c1C,–,active: 9.28 µM
CCN(Cc1ccncc1)Cc1c(O)ccc2ccccc12,–,"inconclusive [inhibitor, partial curve, poor fit]"
CNC(=O)[C@H](C)[C@@H]1C[C@@]1(C)[C@@H](NC(=O)OCc1ccccc1)c1ccccc1,–,active: 13.1 µM
COc1ccc(CCNC(=O)c2cc(=O)c3cc(C)ccc3o2)cc1OC,inactive: -26.7%,–
CCc1nnc2sc(-c3ccc(NC(=O)c4ccc5c(c4)OCCO5)cc3)nn12,–,"inconclusive [inhibitor, full curve]"
CCOC(=O)N1CCN(c2nc(-c3ccccc3)c3ccccc3n2)CC1,–,active: 10.4 µM
COc1ccccc1NC(=O)c1c(Nc2ccccc2C)sc(C(=O)Nc2cccc(Cl)c2)c1N,–,"inconclusive [inhibitor, single point]"
COc1ccc(CCNc2nc(-c3cccc(NC(C)=O)c3)cs2)cc1OC,–,"inconclusive [inhibitor, partial curve, poor fit]"
CCOc1ccc(N2C(=O)C(CC(=O)Nc3ccc(F)cc3)N(Cc3ccccn3)C2=S)cc1 (centres undefined),–,"inconclusive [inhibitor, single point]"
